# Assay results from paper PMC4336329 (PLoS ONE, 2015).
# About 14,000 (4.5%) of roughly 310,000 compounds showed an effect of 50% or more. The effect is printed as a negative number. The list shows a part of the results.
# Biological target: human ether-à-go-go-related gene (hERG) potassium channel (human, UniProt Q12809)
# Assay: primary screen, population patch clamp on CHO cells stably expressing hERG
# 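Note: peak tail current of the secondary pulse compared with the same well before compound.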
# human ether-à-go-go-related gene (hERG) potassium channel, sequence (Q12809 whole entry, looked up): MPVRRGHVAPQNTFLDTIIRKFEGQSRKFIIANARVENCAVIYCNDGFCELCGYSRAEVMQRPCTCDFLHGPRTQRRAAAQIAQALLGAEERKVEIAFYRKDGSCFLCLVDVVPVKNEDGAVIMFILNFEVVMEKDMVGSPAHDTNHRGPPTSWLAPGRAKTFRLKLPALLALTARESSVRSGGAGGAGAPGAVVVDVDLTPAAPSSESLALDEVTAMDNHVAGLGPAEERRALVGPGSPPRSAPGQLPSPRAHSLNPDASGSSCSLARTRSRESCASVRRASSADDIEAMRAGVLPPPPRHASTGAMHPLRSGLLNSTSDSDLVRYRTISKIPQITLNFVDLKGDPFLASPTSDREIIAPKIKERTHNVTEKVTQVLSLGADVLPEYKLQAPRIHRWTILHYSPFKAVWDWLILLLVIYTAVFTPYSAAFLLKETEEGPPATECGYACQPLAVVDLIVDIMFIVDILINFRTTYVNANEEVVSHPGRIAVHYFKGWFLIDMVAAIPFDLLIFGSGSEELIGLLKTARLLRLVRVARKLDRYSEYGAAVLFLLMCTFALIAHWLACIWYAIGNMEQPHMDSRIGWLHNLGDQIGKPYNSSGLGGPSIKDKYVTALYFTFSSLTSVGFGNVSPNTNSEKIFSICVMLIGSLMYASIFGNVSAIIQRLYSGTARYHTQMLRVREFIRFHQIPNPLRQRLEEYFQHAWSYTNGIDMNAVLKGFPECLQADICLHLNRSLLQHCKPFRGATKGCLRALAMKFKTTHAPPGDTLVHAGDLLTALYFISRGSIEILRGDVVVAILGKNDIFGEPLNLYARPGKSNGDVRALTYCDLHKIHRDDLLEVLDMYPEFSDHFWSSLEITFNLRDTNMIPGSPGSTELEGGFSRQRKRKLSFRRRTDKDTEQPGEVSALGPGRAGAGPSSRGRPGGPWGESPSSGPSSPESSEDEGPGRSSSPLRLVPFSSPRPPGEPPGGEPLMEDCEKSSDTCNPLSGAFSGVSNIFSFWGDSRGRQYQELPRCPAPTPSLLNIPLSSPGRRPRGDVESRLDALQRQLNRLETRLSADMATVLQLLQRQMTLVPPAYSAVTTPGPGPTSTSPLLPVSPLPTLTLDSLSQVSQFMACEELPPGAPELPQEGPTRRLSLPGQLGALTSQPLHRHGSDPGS
row,SMILES,"hERG current change (%, negative = inhibition) at 10uM [%]"
1,CCOC(=O)Cn1c(O)c(N=NC(=O)CNC(=O)Cc2ccccc2)c2ccccc21,1.27
2,O=C(c1ccco1)N1C(=O)c2cccc3cccc1c23,2.69
3,CN1CCN(c2ccc(N)cc2Cl)CC1.Cl,0.517
4,CSc1ccc(S(=O)(=O)Nc2c(C)n(C)n(-c3ccccc3)c2=O)cc1,-0.0654
5,NS(=O)(=O)c1ccc(NC(=O)COC(=O)CC2Sc3ccccc3NC2=O)cc1 (centres unmarked),-1.35
6,Cn1c(=O)n(Cc2ccccc2)c(=O)c2c1nc1n2CCCN1CCc1ccccc1,-26
7,O=C(COc1ccc(-n2cnnn2)cc1)Nc1ccccc1OC(F)F,4.44
8,O=C(CCCOc1ccc(Br)cc1)Nc1nnc(C2CC2)s1,18.5
9,O=C(Nc1ccc(Cl)c(Cl)c1)N1CCOCC1,4.52
10,COc1ccc(NC(=O)C2CCN(S(=O)(=O)c3cccs3)CC2)cc1OC,10.7
11,CC1CCCC(NC2CCCCNC2=O)C1 (centres unmarked),4.58
12,C[C@@H]1CN(C(=O)c2ccc(OC3CCN(S(=O)(=O)N(C)C)CC3)cc2)C[C@H](C)O1,14.9
13,CC(Oc1ccccc1)C(=O)N1CCC2(CC1)Oc1ccc(F)cc1C(=O)C21CC(c2ccccc2)=NO1 (centres unmarked),17.1
14,COc1ccc(-c2c(C)n([O-])c(C)c(-c3ccccc3)[n+]2=O)cc1OC,7.35
15,O=C(CCS(=O)(=O)c1ccccc1)Nc1ncc([N+](=O)[O-])s1,17.7
16,CCOC(=O)C1CCCN(C(=O)c2cc3ncc(Br)cn3n2)C1 (centres unmarked),3.43
17,COCCOC(=O)C1=C(C)NC(C)=C(C(=O)OC(C)C)C1c1cccc([N+](=O)[O-])c1 (centres unmarked),-19.6
18,CCC1(C2=NCCN2)Cc2ccccc2O1.Cl (centres unmarked),-6.18
19,CCCCn1c(N)c(N(CC)C(=O)Cc2ccc(S(=O)(=O)N3CCOCC3)s2)c(=O)[nH]c1=O,-7.55

row,SMILES,"hERG current change (%, negative = inhibition) at 10uM [%]"
1,COc1ccccc1-n1c(-c2ccoc2)nc2ccccc2c1=O,-17.1
2,CCn1c(SCC(=O)NC)nnc1C(C)C,9.9
3,CSc1ccccc1C(=O)NCc1ccccc1C,4.87
4,O=C(NC1CCCCC1)C(c1ccncc1)N(CC1CCCO1)C(=O)C(F)(F)F (centres unmarked),2.44
5,CC(C)c1ccc(/C=C2\SC(N3CCOCC3)=NC2=O)cc1,-43
6,Cc1ccc(C2=NN(C(=O)CCC(=O)O)C(c3cn(-c4ccccc4)nc3-c3ccc(C)cc3)C2)cc1 (centres unmarked),2.78
7,CCOc1ccc(CN(C)CC(=O)Nc2cccc(S(=O)(=O)N(C)c3ccccc3)c2)cc1.O=C(O)C(=O)O,-5.31
8,CCOC(=O)c1c(C)c(C(=O)O)n(C)c1C,12.3
9,O=C(N/N=C/c1ccc(Cl)cc1Cl)c1cccc(F)c1,-10.5
10,Cc1cc(=O)[nH]c2c1c(C)nn2-c1ccccc1,10.9
11,CCC(C)(C)NC(=O)/C=C/c1cnc2ccccc2n1,13.6
12,COc1ccc(C(C)C)cc1S(=O)(=O)N1CCC(C(=O)NCc2cccnc2)CC1,-5.48
13,CCC(Sc1nc2ccccc2[nH]1)C(=O)Nc1cc(C)on1 (centres unmarked),9.34
14,COC(=O)c1ccc(OC)c(CSc2nnc(-c3ccc(C(C)(C)C)cc3)o2)c1,9.83
15,Cc1cc2c(cc(C(=O)OC(C(=O)NCc3ccco3)C(C)C)n2C)o1 (centres unmarked),-4.4
16,CC(=O)c1cccc(S(=O)(=O)NCCCN2CCOCC2)c1.Cl,-3.77
17,Cc1cccc(Cn2nc(C)cc2NC(=O)Cn2cc([N+](=O)[O-])cn2)c1,-23.4
18,COCCCn1c(SCC(=O)N2CCOCC2)nc2cc(Cl)ccc2c1=O,-31.8
19,CCc1nnc(NC(=O)CSc2ccc(-c3cccs3)nn2)s1,-0.177

row,SMILES,"hERG current change (%, negative = inhibition) at 10uM [%]"
1,C=CCN(CC=C)C(=S)NC(=O)/C=C/c1ccc(OC)cc1,-3.54
2,Cc1cc(C)cc(C(=O)NC(=S)Nc2cccnc2)c1,-32.4
3,S=c1[nH]nc(-c2cc(-c3ccsc3)n[nH]2)n1-c1ccccc1,15.1
4,CCCCN(C(=O)c1cc2c(s1)CCCC2)c1c(N)n(CCC)c(=O)[nH]c1=O,5.65
5,COc1cccc2[nH]c3c(N4CCC5(CC4)OCCO5)ncnc3c12,-0.305
6,COC(=O)[C@H](NC(=O)c1cc(-c2ccccc2)nc2ccccc12)c1ccccc1,15
7,CC(C)CC(=O)O/N=C1\C(=O)N(Cc2ccc(Cl)cc2)c2ccc([N+](=O)[O-])cc21,-36.1
8,CCCCc1ccc(-c2csc(/C(C#N)=C/c3ccc(C)o3)n2)cc1,15.9
9,CCOc1ccc(OCC(=O)Nc2ccccc2C(F)(F)F)cc1,0.3
10,COc1cccc(CNC(=O)C2CCCN(c3nn4c(=O)cc(C)nc4s3)C2)c1 (centres unmarked),-11.9
11,Cc1cc(C)cc(NC(=S)N(Cc2ccc(Br)cc2)Cc2ccc(C(=O)O)cc2)c1,13.7
12,O=C(Nc1ccc(C(=O)NCCCN2CCN(c3ccc(F)cc3)CC2)cc1)C1=CSCCO1,-54
13,CCOC(=O)CN=C(NS(=O)(=O)c1ccc(Cl)cc1)c1ccccc1,-6.58
14,Cc1ccc(C)c2[nH]c(=O)c(C(c3nnnn3C3CCCC3)N3CCOCC3)cc12 (centres unmarked),-13.7
15,CSc1ccc(CN2C(=O)NC3(CCCCCCC3)C2=O)cc1,-4.06
16,O=C(O)c1cn(-c2ccccc2)c(=O)c2ccccc12,9.72
17,CCN(CC)c1ccc(/C=C/C(=O)c2cccnc2)cc1,-1.37
18,Cn1c2c(c(=O)n(C)c1=O)C(c1ccccc1F)C(C#N)=C(N)O2 (centres unmarked),10.4
